Screen size: about 310,000 compounds; about 14,000 (4.5%) showed an effect of 50% or more. Effects have a minus sign here. Some of the results follow.
target: human ether-à-go-go-related gene (hERG) potassium channel (human, UniProt Q12809); assay: primary screen, population patch clamp on CHO cells stably expressing hERG
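Further: peak tail current of the secondary pulse compared with the same well before compound.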

Sequence of human ether-à-go-go-related gene (hERG) potassium channel (Q12809 whole entry, looked up): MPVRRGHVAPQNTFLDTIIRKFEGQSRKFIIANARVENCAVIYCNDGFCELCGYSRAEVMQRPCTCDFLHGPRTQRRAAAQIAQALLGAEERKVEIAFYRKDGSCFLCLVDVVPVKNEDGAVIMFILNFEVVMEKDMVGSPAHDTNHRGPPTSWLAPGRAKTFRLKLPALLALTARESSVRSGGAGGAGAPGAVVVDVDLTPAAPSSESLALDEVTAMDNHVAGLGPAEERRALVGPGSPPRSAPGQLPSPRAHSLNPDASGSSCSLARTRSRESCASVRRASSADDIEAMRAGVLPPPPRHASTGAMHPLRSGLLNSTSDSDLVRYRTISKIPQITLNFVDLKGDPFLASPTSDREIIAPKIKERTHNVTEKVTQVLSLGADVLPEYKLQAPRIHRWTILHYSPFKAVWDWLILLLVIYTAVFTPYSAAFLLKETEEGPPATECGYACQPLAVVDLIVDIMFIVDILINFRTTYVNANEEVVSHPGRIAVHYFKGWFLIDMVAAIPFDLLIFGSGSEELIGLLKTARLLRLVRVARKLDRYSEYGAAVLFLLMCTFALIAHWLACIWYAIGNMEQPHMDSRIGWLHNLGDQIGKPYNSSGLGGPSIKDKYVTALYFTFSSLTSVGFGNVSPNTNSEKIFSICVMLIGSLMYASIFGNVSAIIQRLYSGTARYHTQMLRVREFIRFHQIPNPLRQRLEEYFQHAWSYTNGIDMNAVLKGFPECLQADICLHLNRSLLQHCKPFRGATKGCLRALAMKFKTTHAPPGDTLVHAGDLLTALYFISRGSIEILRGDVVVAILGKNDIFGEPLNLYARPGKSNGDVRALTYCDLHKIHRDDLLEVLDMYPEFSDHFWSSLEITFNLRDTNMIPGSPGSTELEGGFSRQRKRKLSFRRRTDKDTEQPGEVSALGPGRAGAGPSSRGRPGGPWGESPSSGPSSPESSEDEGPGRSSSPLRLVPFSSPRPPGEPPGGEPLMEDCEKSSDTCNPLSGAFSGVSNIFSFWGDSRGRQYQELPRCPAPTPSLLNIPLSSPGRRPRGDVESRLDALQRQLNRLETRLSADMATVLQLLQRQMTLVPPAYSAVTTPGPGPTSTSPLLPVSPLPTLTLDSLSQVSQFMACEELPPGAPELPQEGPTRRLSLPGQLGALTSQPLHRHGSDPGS

Structure (SMILES)	hERG current change (%, negative = inhibition) at 10uM [%]
O=C1CCC(=O)N(c2ccccc2)N1	21.9
NS(=O)(=O)c1ccc(CNC(=O)c2ccc(Cl)c(S(=O)(=O)NCc3ccccc3)c2)cc1	6.57
CCCc1cc(C(=O)OC)c(NC(=O)OCC)s1	1.09
C=CCNc1nc(C(=O)OCC(=O)N(Cc2ccccc2)C(C)C)cs1	-30.8
Cc1sc(-c2ccccn2)nc1OC(=O)c1ccc(F)cc1F	23.3
Cc1cc(C2=NNC(=Nc3ccc(S(=O)(=O)N4CCOCC4)cc3)SC2)c(C)n1C	-1.43
COc1ccc(/C=C(/NC(=O)/C=C/c2ccccc2)C(=O)N2CCOCC2)cc1	-71.2
Cc1ccccc1CN(c1ccc(C(=O)NCc2cccnc2)cc1)S(C)(=O)=O	-0.823
Nc1nnc(SCc2c(F)cccc2Cl)s1	-0.0422
COc1ccccc1C(=O)Nc1ccnn1C1CCN(C(=O)C2CCOC2)CC1 (stereo not shown)	-35.9
Cc1cc(C)c2nc(N3CCC(C(=O)N4CCN(C(=O)c5ccco5)CC4)CC3)sc2c1	-77.1
O=C(C[n+]1ccccc1)N/N=C/c1c(F)cccc1Cl.[Cl-]	24.3
CC(=O)Nc1ccc(C(=O)NN2C(=O)c3ccccc3C2=O)cc1	7.29
Nc1nc(CSc2nnnn2-c2ccccc2)nc(N2CCCc3ccccc32)n1	-0.4
O=C(COC(=O)c1ccc(S(=O)(=O)N2CCOCC2)cc1)NC1CCCC1	-1.06
Cc1cc(C(=O)Oc2ccccc2C(=O)O)c(C)o1	10.5
COc1cccc(NC(=O)C2CCN(C(=O)[C@@H]3Cc4ccccc4CN3C(=O)OC(C)(C)C)CC2)c1	0.248
Cc1ccc(CCNS(=O)(=O)c2cnc[nH]2)cc1	2.46
CC(C)c1ccc(O)c(CN2CCN(c3ccccc3)CC2)c1	8.49
O=C1C2C3C=CC(C4CC34)C2C(=O)N1CCc1ccccc1 (stereo not shown)	3.23
COc1cc2cc(C(=O)N3CCc4ccccc4C3)[nH]c2cc1OC	17.3
CC1CC2(CCCCC2)Nc2ccc3ccccc3c21.Cl (stereo not shown)	1.27
COc1cc(OC)cc(C(=O)Nc2cc(C)on2)c1	18.6

Structure (SMILES)	hERG current change (%, negative = inhibition) at 10uM [%]
CSCCC(NC(=O)c1ccco1)C(=O)NCc1ccc(F)cc1 (stereo not shown)	-4.16
CCOC(=O)c1ccc(Nc2cc(C)nc(-c3ccccc3O)n2)cc1	12.2
CC(C)C(OC(=O)/C=C/c1ccc2c(c1)OCO2)C(=O)NC(N)=O (stereo not shown)	10.9
CCOc1ccc(/C=C(/NC(=O)c2ccc(Cl)cc2)C(=O)O)cc1OCC	-17.3
Cc1ccccc1NC(=O)NCCCN1CCN(C2CCCCC2)CC1	-9.26
COc1ccc(Cl)cc1NC(=O)C/C(C)=N/NC(=O)Cc1ccccc1	0.353
COc1cccc(/C(C)=N/Nc2ncc(Cl)cc2Cl)c1	-10.3
CCc1nnc(NC(=O)CN2CC(C)OC(C)C2)s1 (stereo not shown)	21.1
O=C(Cc1ccccc1)Oc1ccccc1N1C(=O)CCC1=O	3.17
COC(=O)C1=C(c2cc3ccccc3o2)C[C@@H]2CC[C@H]1N2C	-22.1
CCOC(=O)C1=C(c2ccccc2)NC(N)=NC1c1ccc(OCc2ccc(C(=O)OC)cc2)cc1 (stereo not shown)	-43.3
COc1ccc(S(=O)(=O)N2CCN(S(=O)(=O)c3ccc(C(F)(F)F)cc3)CC2)cc1C	4.56
O=S1(=O)NC[C@]23C[C@H](c4ccc(F)cc4)[C@@H](C[C@@H]21)O3	-1.82
COc1ccc2c(c1)C(C)(CCN)C(=O)N2C (stereo not shown)	7.52
CCN1CCN(C(=S)c2ccc(Br)cc2)CC1	-50
CCOC(=O)N1CCN(C(=O)C(C)NC(=O)c2ccco2)CC1 (stereo not shown)	13.5
CC(C)OC(=O)c1cc(C(=O)c2cc(Br)ccc2O)coc1=N	1.18
O=C(O)/C=C/c1cccc(NC(=O)c2ccccc2)c1	9.14
CC(CC(=O)NCc1ccc(Cl)cc1)c1ccccc1 (stereo not shown)	-9.48
O=C(COC(=O)Cn1cnc2ccccc21)NCc1ccc(F)cc1	19.6
O=C(/C=C/c1ccc2c(c1)OCO2)Nc1nc(-c2ccc(F)cc2F)cs1	9.08
Cc1ccc2nc(SCC(=O)Nc3cccc(F)c3)nc(=O)n2c1	-18.8
Cc1cccc(C)c1NC(=O)Nc1ccc(S(N)(=O)=O)cc1	18.5

Source: article PMC4336329 (PLoS ONE, 2015)
